# Reference: the supplement of paper PMC8728848
# This is one part of the list.
# Key:
# Experiment in all cases: glycan array binding signal (z-score within array); higher = stronger binding
# Conditions in all cases: glycan notation: IUPAC condensed, linker removed
# Gal(a1-2)Gal = target: Gal(a1-2)Gal
# Summary of the method: (§1)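 Columns mapping to the same glycan were averaged after glycan names were converted to IUPAC-condensed notation. The data come from 3228 arrays in the Consortium for Functional Glycomics database, limited to those with an available protein sequence. Binding is reported as a within-array Z-score averaged across arrays of one protein sequence and across linkers.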
# Gal(a1-3)Gal = target: Gal(a1-3)Gal
# Summary of the method: as §1
# Gal(a1-3)Gal(b1-3)GlcNAc = target: Gal(a1-3)Gal(b1-3)GlcNAc
# Summary of the method: as §1
# Gal(a1-3)Gal(b1-4)Glc = target: Gal(a1-3)Gal(b1-4)Glc
# Summary of the method: as §1
# Gal(a1-3)Gal(b1-4)GlcNAc = target: Gal(a1-3)Gal(b1-4)GlcNAc
# Summary of the method: as §1
# [1] = target: Gal(a1-3)Gal(b1-4)[Fuc(a1-3)]GlcNAc
# Summary of the method: as §1
# [2] = target: Gal(a1-3)Gal(b1-4)[Fuc(a1-3)]GlcNAc(b1-2)Man(a1-3)[Gal(a1-3)Gal(b1-4)[Fuc(a1-3)]GlcNAc(b1-2)Man(a1-6)]Man(b1-4)GlcNAc(b1-4)GlcNAc
# Summary of the method: as §1
# Gal(a1-3)GalNAc = target: Gal(a1-3)GalNAc
# Summary of the method: as §1
# [3] = target: Gal(a1-3)[Gal(a1-4)]Gal(b1-4)GlcNAc
# Summary of the method: as §1
# Gal(a1-4)Gal(b1-4)Glc = target: Gal(a1-4)Gal(b1-4)Glc
# Summary of the method: as §1
# Gal(a1-4)Gal(b1-4)GlcNAc = target: Gal(a1-4)Gal(b1-4)GlcNAc
# Summary of the method: as §1
# [4] = target: Gal(a1-4)Gal(b1-4)GlcNAc(b1-3)Gal(b1-4)Glc
# Summary of the method: as §1
# Gal(a1-4)GlcNAc = target: Gal(a1-4)GlcNAc
# Summary of the method: as §1
# Gal(a1-6)Glc = target: Gal(a1-6)Glc
# Summary of the method: as §1
# Gal(b1-2)Gal = target: Gal(b1-2)Gal
# Summary of the method: as §1
# Gal(b1-3)Gal = target: Gal(b1-3)Gal
# Summary of the method: as §1
# Gal(b1-3)Gal(b1-4)GlcNAc = target: Gal(b1-3)Gal(b1-4)GlcNAc
# Summary of the method: as §1
# [5] = target: Gal(b1-3)Gal(b1-4)GlcNAc(b1-2)Man(a1-3)[Gal(b1-3)Gal(b1-4)GlcNAc(b1-2)Man(a1-6)]Man(b1-4)GlcNAc(b1-4)GlcNAc
# Summary of the method: as §1
# Gal(b1-3)GalNAc = target: Gal(b1-3)GalNAc
# Summary of the method: as §1
# [6] = target: Gal(b1-3)GalNAc(a1-3)[Fuc(a1-2)]Gal(b1-4)Glc
# Summary of the method: as §1
# [7] = target: Gal(b1-3)GalNAc(a1-3)[Fuc(a1-2)]Gal(b1-4)GlcNAc
# Summary of the method: as §1
# [8] = target: Gal(b1-3)GalNAc(b1-3)Gal(a1-4)Gal(b1-4)Glc
# Summary of the method: as §1
# [9] = target: Gal(b1-3)GalNAc(b1-4)Gal(b1-4)Glc
# Summary of the method: as §1
# [10] = target: Gal(b1-3)GalNAc(b1-4)[Neu5Ac(a2-3)]Gal(b1-4)Glc
# Summary of the method: as §1
# Gal(b1-3)GlcNAc = target: Gal(b1-3)GlcNAc
# Summary of the method: as §1
# [11] = target: Gal(b1-3)GlcNAc(b1-2)Man(a1-3)[Gal(b1-3)GlcNAc(b1-2)Man(a1-6)]Man(b1-4)GlcNAc(b1-4)GlcNAc
# Summary of the method: as §1
# [12] = target: Gal(b1-3)GlcNAc(b1-2)Man(a1-3)[Gal(b1-3)GlcNAc(b1-2)Man(a1-6)]Man(b1-4)GlcNAc(b1-4)[Fuc(a1-6)]GlcNAc
# Summary of the method: as §1
# [13] = target: Gal(b1-3)GlcNAc(b1-3)Gal(b1-3)GlcNAc
# Summary of the method: as §1
# [14] = target: Gal(b1-3)GlcNAc(b1-3)Gal(b1-4)Glc
# Summary of the method: as §1
# [15] = target: Gal(b1-3)GlcNAc(b1-3)Gal(b1-4)GlcNAc
# Summary of the method: as §1
binder,measurement,setting,value
"Sialidase (Vibrio cholerae), P37060 (protein) GAMALFDYNATGDTEFDSPAKQGWMQDNTNNGSGVLTNADGMPAWLVQGIGGRAQWTYSLSTNQHAQASSFGWRMTTEMKVLSGGMITNYYANGTQRVLPIISLDSSGNLVVEFEGQTGRTVLATGTAATEYHKFELVFLPGSNPSASFYFDGKLIRDNIQPTASKQNMIVWGNGSSNTDGVAAYRDIKFEIQGDALNGSMALFDYNATGDTEFDSPAKQGWMQDNTNNGSGVLTNADGMPAWLVQGIGGRAQWTYSLSTNQHAQASSFGWRMTTEMKVLSGGMITNYYANGTQRVLPIISLDSSGNLVVEFEGQTGRTVLATGTAATEYHKFELVFLPGSNPSASFYFDGKLIRDNIQPTASKQNMIVWGNGSSNTDGVAAYRDIKFEIQGDLQALGMALFDYNATGDTEFDSPAKQGWMQDNTNNGSGVLTNADGMPAWLVQGIGGRAQWTYSLSTNQHAQASSFGWRMTTEMKVLSGGMITNYYANGTQRVLPIISLDSSGNLVVEFEGQTGRTVLATGTAATEYHKFELVFLPGSNPSASFYFDGKLIRDNIQPTASKQNMIVWGNGSSNTDGVAAYRDIKFEIQGD",glycan array binding signal (z-score),Gal(a1-2)Gal,0.268
same,glycan array binding signal (z-score),Gal(a1-3)Gal,-0.178
same,glycan array binding signal (z-score),Gal(a1-3)Gal(b1-3)GlcNAc,-0.508
same,glycan array binding signal (z-score),Gal(a1-3)Gal(b1-4)Glc,-0.489
same,glycan array binding signal (z-score),Gal(a1-3)Gal(b1-4)GlcNAc,-0.184
same,glycan array binding signal (z-score),[1],-0.288
same,glycan array binding signal (z-score),[2],0.428
same,glycan array binding signal (z-score),Gal(a1-3)GalNAc,-0.472
same,glycan array binding signal (z-score),[3],-0.59
same,glycan array binding signal (z-score),Gal(a1-4)Gal(b1-4)Glc,-0.612
same,glycan array binding signal (z-score),Gal(a1-4)Gal(b1-4)GlcNAc,-0.428
same,glycan array binding signal (z-score),[4],0.166
same,glycan array binding signal (z-score),Gal(a1-4)GlcNAc,-0.507
same,glycan array binding signal (z-score),Gal(a1-6)Glc,-0.117
same,glycan array binding signal (z-score),Gal(b1-2)Gal,-0.582
same,glycan array binding signal (z-score),Gal(b1-3)Gal,-0.133
same,glycan array binding signal (z-score),Gal(b1-3)Gal(b1-4)GlcNAc,0.151
same,glycan array binding signal (z-score),[5],-0.557
same,glycan array binding signal (z-score),Gal(b1-3)GalNAc,-0.469
same,glycan array binding signal (z-score),[6],-0.504
same,glycan array binding signal (z-score),[7],-0.627
same,glycan array binding signal (z-score),[8],-0.387
same,glycan array binding signal (z-score),[9],-0.52
same,glycan array binding signal (z-score),[10],0.396
same,glycan array binding signal (z-score),Gal(b1-3)GlcNAc,-0.195
same,glycan array binding signal (z-score),[11],-0.634
same,glycan array binding signal (z-score),[12],-0.491
same,glycan array binding signal (z-score),[13],-0.144
same,glycan array binding signal (z-score),[14],-0.268
same,glycan array binding signal (z-score),[15],-0.474
